Test results published in PubChem BioAssay AID485367 (National Center for Advancing Translational Sciences (NCATS), 2010).
In all, about 330,000 compounds went through this assay and about 560 (0.17%) were called active. Inconclusive means that the source gave no clear call. Such entries were picked first, then a sample of the others. Calls come from the whole dose curve; as a rule, active = well fitted inhibition curve with a large enough effect; inconclusive = small, poorly fitted or top-dose-only effect, or effect the other way; inactive = flat fitted curve, though single readings scatter. No potency is given beside an inconclusive call; the fits are too rough.

Target: ATP-dependent 6-phosphofructokinase (Trypanosoma brucei brucei) (UniProt O15648)
UniProt O15648, sequence (O15648 whole entry, looked up): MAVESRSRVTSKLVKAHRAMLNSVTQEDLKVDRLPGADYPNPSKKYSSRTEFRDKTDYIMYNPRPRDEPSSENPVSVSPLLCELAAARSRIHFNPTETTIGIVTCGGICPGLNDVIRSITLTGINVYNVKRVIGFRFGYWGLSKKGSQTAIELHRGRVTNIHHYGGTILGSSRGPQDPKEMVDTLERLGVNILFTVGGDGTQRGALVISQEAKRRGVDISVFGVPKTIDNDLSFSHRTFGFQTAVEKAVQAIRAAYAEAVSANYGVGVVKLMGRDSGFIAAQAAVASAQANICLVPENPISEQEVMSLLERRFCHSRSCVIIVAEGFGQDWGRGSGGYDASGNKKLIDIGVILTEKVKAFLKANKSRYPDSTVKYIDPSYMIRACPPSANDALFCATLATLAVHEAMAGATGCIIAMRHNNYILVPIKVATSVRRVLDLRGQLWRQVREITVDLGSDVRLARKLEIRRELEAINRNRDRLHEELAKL
Experiment: qHTS Assay to Find Inhibitors of T. brucei phosphofructokinase; note: nearly all actives have a fitted effect of over 60% in size;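 for activity, negative = inhibition: 0% = uninhibited 1x PFK enzyme wells and -100% = no-enzyme wells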
Conditions: T. brucei PFK, ADP-Glo luminescence; activity, negative = inhibition: at 57.5 µM (top of the series)
Procedure, shortened: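 In TEA buffer at pH 8.0 with 5 mM MgCl2, enzyme (1.25 nM) converted F6P (0.5 mM) and ATP (0.1 mM) for 45 min at room temperature. ADP product was read by luciferase luminescence.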
Potency is the fitted concentration of half-maximal effect; tags give direction and shape of the fitted curve.

| SMILES | activity, negative = inhibition | Potency |
| --- | --- | --- |
| CC(=O)N(c1ccccc1)C1CC(C)N(C(=O)c2ccccc2)c2ccccc21 (configuration not stated) | inactive: -1.65% | – |
| CCN(CC)C(=O)c1[nH]cnc1C(=O)Nc1ccc(Cl)cc1 | inactive: -1.63% | – |
| CC(=O)CCN1C(=O)NC2(CCCc3ccccc32)C1=O (configuration not stated) | inactive: 2.71% | – |
| C/C(=N\NC(=S)NCc1ccccc1)c1ccccc1 | inactive: 3.19% | – |
| O=C(NCC1CCCO1)C1CCN(c2ccc(S(=O)(=O)N3CCCC3)cc2)CC1 (configuration not stated) | – | inconclusive [falling, single point] |
| Cc1cc(C)cc(NC(=S)Nc2ccc(Cl)c(Cl)c2)c1 | – | active: 9.53 µM |
| O=C(Nc1cccnc1)c1ccc2nc(-c3ccccc3)c(-c3ccccc3)nc2c1 | – | inconclusive [falling, single point] |
| CCOC(=O)c1c(-c2ccc(C)o2)csc1NC(=O)CSc1nncs1 | – | inconclusive [falling, partial curve] |
| COc1cc(C2C(C(C)=O)=C(O)C(=O)N2CCc2ccc(OC)c(OC)c2)ccc1O (configuration not stated) | – | inconclusive [falling, single point] |
| O=C1NC(=O)[C@@H]2C3c4ccccc4C=CN3[C@H](C(=O)c3cccs3)[C@H]12 (some centres not stated) | – | inconclusive [activator, partial curve] |
| N#Cc1c(Cl)nsc1NC(=O)c1ccccc1 | inactive: -0.587% | – |
| O=C(COc1ccc(Cl)cc1)OCC(=O)c1ccc[nH]1 | – | inconclusive [falling, partial curve] |
| CN(C)CCCN(C(=O)c1cc2cc([N+](=O)[O-])ccc2s1)c1nc2cc3c(cc2s1)OCCO3 | inactive: 3.24% | – |
| CCOC(=O)c1sc(=S)n(-c2ccccc2)c1NC(C)=O | inactive: 0.857% | – |
| O=C(NCCCN1CCOCC1)c1ccc2nc(Cc3cccc(Cl)c3)oc2c1 | – | inconclusive [falling, partial curve] |
| CNCc1ccccc1Sc1cc(O)ccc1O | – | inconclusive [falling, partial curve] |
| CCSC1=C(C#N)C(=O)n2c1cc1c2CCCC1 | – | inconclusive [falling, single point] |
| CCNc1nc(NCC)n2c(SCC(=O)Nc3ccc(Br)cc3F)nnc2n1 | – | inconclusive [falling, single point] |
| N#Cc1cccc(CSc2ncnc(N)n2)c1 | – | inconclusive [falling, partial curve] |
| CC(C)C(O)(C(=O)NNc1ccccc1)C(C)C | inactive: 1.25% | – |
| Cc1cc(C)n(CC(C)C(=O)O)n1 (configuration not stated) | – | inconclusive [falling, single point] |
| COc1ccc(-c2ccc(C(=O)O)o2)c([N+](=O)[O-])c1 | – | inconclusive [activator, single point] |
| COc1ccc(Cl)cc1NS(=O)(=O)c1cccc(C(=O)NC2CC2)c1 | – | inconclusive [falling, single point] |
| Cc1cc(=O)n2c3c(sc2n1)C(=O)N(Cc1ccccc1)C3=O | inactive: 0.344% | – |
| Cc1ccc(-n2ncc3c(=O)n(CC(N)=O)cnc32)cc1C | inactive: 3.21% | – |
| N#Cc1cc2c(nc1SCc1ccccc1)CCC2 | inactive: -2.28% | – |

| SMILES | activity, negative = inhibition | Potency |
| --- | --- | --- |
| CCOc1ccc(S(=O)(=O)N2CCCC(C(=O)NC3CC3)C2)cc1Cl (configuration not stated) | – | inconclusive [activator, single point] |
| CN(c1ccccc1)S(=O)(=O)c1cccc(NC(=O)C2CC(=O)N(Cc3ccccc3)C2)c1 (configuration not stated) | – | inconclusive [falling, single point] |
| Cc1ccc(S(=O)(=O)CNC(=S)c2cccc(Cl)c2)cc1 | – | inconclusive [falling, partial curve] |
| Fc1ccccc1/C=N/n1c(COc2ccccc2)n[nH]c1=S | – | inconclusive [falling, full curve, poor fit] |
| Cc1ccc(-c2nn(-c3ccccc3)cc2/C=C2\SC(=S)N(CCCCCC(=O)O)C2=O)o1 | – | active: 4.78 µM |
| Cc1ccc(S(=O)(=O)Nn2c(C)ccc2C)cc1 | – | inconclusive [falling, single point] |
| COc1ccc(N=C(C)C2=C(O)c3ccccc3C2=O)cc1 | inactive: 8.8% | – |
| COCCN1CCN(C(=O)c2cc(COc3ccc(F)cc3F)on2)CC1 | inactive: -3.72% | – |
| S=c1[nH]nc(-c2cc(-c3ccccc3)n[nH]2)n1/N=C/c1ccccc1 | – | inconclusive [falling, partial curve] |
| O=C(Nc1ccn(Cc2ccc(F)cc2)n1)c1ccncc1 | – | inconclusive [falling, partial curve] |
| CC(=O)Nc1ccc(-c2nn[nH]n2)cc1Cl | – | inconclusive [falling, single point] |
| Cc1occc1-c1nnc(SCCCC(=O)c2ccc(F)cc2)n1C | inactive: 5.12% | – |
| CC(C)(C)c1cc(C(=O)NCc2cccnc2)ccn1 | inactive: 0.81% | – |
| NC1=NC2(CCCCC2)n2c(nc3ccccc32)N1 | – | inconclusive [activator, full curve, poor fit] |
| COc1cccc(C(=O)Nc2nnc(Cc3ccc(OC)c(OC)c3)s2)c1 | inactive: -7.62% | – |
| O=C(Cc1ccc(Cl)cc1Cl)Nc1cccc(S(=O)(=O)Nc2ccccc2F)c1 | – | inconclusive [falling, full curve] |
| N#Cc1c(F)cccc1NCc1cccnc1 | – | inconclusive [falling, partial curve] |
| CN(c1ccccc1)S(=O)(=O)c1cccc(NC(=O)c2cc3ccccc3oc2=O)c1 | inactive: -18.7% | – |
| CC(C)CN(CCCNC(=O)CC1Oc2ccccc2NC1=O)CC(C)C (configuration not stated) | inactive: 2.24% | – |
| COc1ccc(C(=O)CSc2nnc(CNc3ccc(F)cc3)o2)cc1 | – | active: 16.9 µM |
| CCOC(=O)c1c(NC(=S)Nc2ccc(Cl)cc2)sc(C)c1C | inactive: 3.88% | – |
| CC(C)n1c(SCC(=O)Nc2ccc(F)cc2)nnc1C1CC1 | – | inconclusive [falling, single point] |
| CCN(CC)CCNC(=O)c1cc(-c2ccco2)nc2ccccc12 | inactive: 3.19% | – |
| O=C(COC(=O)c1ccccc1O)Nc1cccc(S(=O)(=O)NC2=NCCCCC2)c1 | – | active: 13.5 µM |
| Cc1ccc(/C=c2\sc3n(c2=O)CN(c2cccc(Br)c2)CN=3)o1 | – | inconclusive [falling, single point] |
| Cc1ccc(C)c(OCC(=O)Nc2cc(NC(=O)COc3cc(C)ccc3C)cc(C(=O)O)c2)c1 | – | inconclusive [falling, single point] |

| SMILES | activity, negative = inhibition | Potency |
| --- | --- | --- |
| CCN(CC)C(=O)CSc1nc(C)cc(-c2cccs2)c1C#N | – | inconclusive [falling, single point] |
| C=CCn1c(SCC(=O)NC2CC2)nnc1-c1cccc(OC)c1 | – | inconclusive [falling, single point] |
| CC(C(=O)O)N1C(=O)/C(=C/C=C/c2ccco2)SC1=S (configuration not stated) | – | active: 3.01 µM |
| Cc1ccc(NC2CCCN(C(=O)c3ccc(F)cc3)C2)cc1C (configuration not stated) | inactive: 0.0334% | – |
| C=CCOn1c(=O)c(-c2cccs2)[n+]([O-])c2ccccc21 | inactive: -2.61% | – |
| Cc1ccccc1NC(=O)CSc1[nH]c(=O)cc(C)c1C#N | inactive: -9.19% | – |
| O=C(c1cccnc1)N(c1cc2sc(=O)oc2c2ccccc12)S(=O)(=O)c1ccccc1 | – | inconclusive [falling, single point] |
| O=C(Cc1ncc(C(F)(F)F)cc1Cl)N1CCN(c2cccc(Cl)c2)CC1 | – | inconclusive [falling, single point] |
| CCOC(=O)C1=C(N)OC2=C(C(=O)CC(C)(C)C2)C1c1cccs1 (configuration not stated) | – | inconclusive [activator, single point] |
| O=C(Cn1c(=O)oc2cc(S(=O)(=O)N3CCCC3)ccc21)Nc1cccc(C(F)(F)F)c1 | inactive: 1.24% | – |
| Cc1ccsc1/C=C/C1=Cc2c(sc(NC(=O)CSc3n[nH]c(N)n3)c2C#N)C(C)(C)C1 | – | inconclusive [falling, single point] |
| COc1ccc(C(=O)O)cc1S(=O)(=O)N1CCN(Cc2ccc3c(c2)OCO3)CC1 | inactive: -0.153% | – |
| Cn1c(NCCCN2CCOCC2)nc2c1c(=O)n(Cc1ccc(Cl)c(Cl)c1)c(=O)n2C | – | inconclusive [falling, single point] |
| COC(=O)c1c(NC(=O)Cc2cccs2)sc(C(=O)N2CCCCC2)c1C | inactive: -1.51% | – |
| CN(C)c1ccc(/C=N/NC(=O)c2ccccn2)cc1 | – | inconclusive [falling, partial curve] |
| COc1ccc(CCNC(=S)NCc2ccc(Cl)c(Cl)c2)cc1OC | – | inconclusive [falling, single point] |
| COc1cccc(CN(C)CC(O)COc2cc(Cl)ccc2Cl)c1 (configuration not stated) | inactive: -6.44% | – |
| CC(=O)c1sc(NC(=O)CCOc2ccccc2)nc1C | inactive: -3.85% | – |
| COc1ccc(CN2C(=O)c3cccnc3C2O)cc1 (configuration not stated) | – | active: 26.9 µM |
| CCOC(=O)c1sc2nccc(OC)c2c1N=CNOC | inactive: -1.93% | – |
| O=C(/C=C/c1ccc([N+](=O)[O-])cc1)/C=C/c1ccco1 | – | inconclusive [falling, single point] |
| COc1ccc(NC(=O)CNc2cccc(C#N)c2)cc1Cl | – | inconclusive [falling, partial curve] |
| Cc1ccc(C(=O)NC(=S)Nc2ccc(-c3ccc(CO)o3)cc2)cc1 | – | inconclusive [falling, partial curve] |
| CCN1CC(CNC(=O)c2ccc3nc(Cc4cccc(Cl)c4)oc3c2)CC1=O (configuration not stated) | – | inconclusive [falling, partial curve] |
| Cc1cc(C)c2nc(SCC(=O)Nc3cc(C)on3)c(C)cc2c1 | – | inconclusive [falling, single point] |
